# PubChem BioAssay AID1768 (National Center for Advancing Translational Sciences (NCATS), 2009)
# “And” between values parts separate entries of the source, which are not always exact repeats. Identical values can stand only once. In all, about 270,000 compounds went through this assay and about 620 (0.23%) were called active. This list was built around the results that the source calls inconclusive (neither active nor inactive); the mix of calls is not that of the screen. The call rests on the fitted dose curve; in most records, active means well fitted inhibition curve with a large enough effect in the polarisation, with a control signal flat (not every such curve was filed as active); inconclusive means small, poorly fitted or top-dose-only effect, or effect the other way, or a change in a side signal; inactive means no such curve, though single readings can be large or run the other way; the % refers to the polarisation. A potency beside an inconclusive call is a rough fit, not a confirmed value. A note “side channel” means that the fit belongs to a control or component signal, not to the main read-out.
# Target: Menin (Homo sapiens) (UniProt O00255)
# Assay: qHTS Assay for Inhibitors Targeting the Menin-MLL Interaction in MLL Related Leukemias: Competition With Texas Red Labeled MLL-derived Mutant Peptide; on FP activity change, negative = inhibition: % of control where 0% means no effect
# Conditions: fluorescence polarization; FP activity change, negative = inhibition: at 61.6 µM (top of the series)
# Potency means the concentration at half of the fitted maximal effect; tags describe the fitted curve by direction and shape or compound fluorescence and quenching.
# Chain of UniProt O00255 (O00255 whole entry, looked up): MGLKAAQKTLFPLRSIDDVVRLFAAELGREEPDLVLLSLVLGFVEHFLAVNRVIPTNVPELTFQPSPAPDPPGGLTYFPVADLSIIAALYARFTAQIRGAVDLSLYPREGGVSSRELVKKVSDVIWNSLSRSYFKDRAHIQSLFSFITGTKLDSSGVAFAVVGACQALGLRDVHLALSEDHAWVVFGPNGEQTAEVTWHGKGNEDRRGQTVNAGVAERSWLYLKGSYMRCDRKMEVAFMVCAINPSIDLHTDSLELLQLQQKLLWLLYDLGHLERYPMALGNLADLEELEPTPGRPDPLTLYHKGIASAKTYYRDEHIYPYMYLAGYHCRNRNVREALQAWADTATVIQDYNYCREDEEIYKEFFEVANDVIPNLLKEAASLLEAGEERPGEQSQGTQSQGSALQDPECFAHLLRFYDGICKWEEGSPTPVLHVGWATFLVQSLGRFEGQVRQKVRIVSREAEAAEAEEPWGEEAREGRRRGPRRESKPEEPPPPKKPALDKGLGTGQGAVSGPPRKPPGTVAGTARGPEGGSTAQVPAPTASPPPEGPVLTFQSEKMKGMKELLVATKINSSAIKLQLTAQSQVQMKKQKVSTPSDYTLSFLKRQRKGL
SMILES,Potency,"FP activity change, negative = inhibition"
Cn1nc(-c2ccc(Cl)cc2)c2cc(C(=O)NCc3ccco3)sc21,"inconclusive: 10 µM [quencher, side channel, partial curve]",–
O=C1C(c2ccc(F)cc2)N(C2CCCCC2)C(=O)CN1C1CCCC1 (configuration not stated),"inconclusive: 6.31 µM [inhibitor, full curve, poor fit]",–
Cc1ccc(/C=C2\SC(N3CCCCC3)=NC2=O)cc1,–,inactive: -8.9%
O=C1c2ccccc2C(Nc2ccc3c(c2)OCO3)N1Cc1ccc2c(c1)OCO2 (configuration not stated),"inconclusive: 28.2 µM [quencher, side channel, single point]",–
COc1ccc(OC)c(C2C3=C(CCCC3=O)Nc3c2c(=O)n(C)c(=O)n3C)c1 (configuration not stated),"inconclusive: 7.08 µM [inhibitor, single point]",–
C[C@@H](c1ccccc1)N1C(=O)[C@H]2[C@H]3[C@H](O)[C@H](O)C/C(=N/OC[C@@H](O)COCc4ccco4)[C@H]3CC[C@@H]2C1=O,–,inactive: 0.165% [at 11.7 µM]
Cc1cc2c(c(=O)n1-c1ccccc1)C1O[C@](c3ccsc3)(Cc3cc(C#N)ccc31)O2,"inconclusive: 2.82 µM [quencher, side channel, partial curve]",–
O=C1c2ccccc2C(=O)N1c1cccc(-c2csc(Nc3ccc4c(c3)OCO4)n2)c1,"inconclusive: 3.98 µM [quencher, side channel, full curve]",–
O=C(O)CCC(=O)Nc1sc2c(c1C(=O)Nc1ccccc1)CCCCC2,"inconclusive: 20 µM [quencher, side channel, partial curve]",–
CCCN1CN(Cc2ccccc2)CNC1=S,"inconclusive: 39.8 µM [inhibitor, single point]",–
C=CCN(C(C(=O)OC)C(C)C)S(=O)(=O)CCl (configuration not stated),"inconclusive: 7.08 µM [quencher, side channel, single point]",–
O=C(NNC(=S)Nc1ccc(OC(F)F)cc1)c1cc2c(s1)CCCC2,–,inactive: 0.891%
O=C1NN(c2ccc(F)cc2)C(=O)/C1=C\C=C\c1ccco1,"inconclusive: 14.1 µM [quencher, side channel, partial curve]",–
O=C(O)c1ccc(OCCn2ccnc2)cc1,"inconclusive: 5.62 µM [inhibitor, partial curve]",–
COc1ccc(-c2cc(-c3cccs3)c(C#N)c(SCC(=O)NCc3ccccc3)n2)cc1,"inconclusive: 10 µM [inhibitor, partial curve]",–
Cc1ccccc1-c1nn(-c2ccc(F)cc2F)cc1CNCCCN(C)C,–,inactive: 0.974%
O=C(O)c1cc(N=Nc2c(O)[nH]c3ccc([N+](=O)[O-])cc23)ccc1Cl,"inconclusive: 31.6 µM [quencher, side channel, single point]",–
COc1ccc(C)cc1Nc1n[n+](-c2ccccc2)c(-c2ccc(N(C)C)cc2)s1,"inconclusive: 14.1 µM [inhibitor, partial curve]",–
Nc1ccc(Nc2nc(-c3cc4ccccc4oc3=O)cs2)cc1,"inconclusive: 15.8 µM [quencher, side channel, partial curve]",–

SMILES,Potency,"FP activity change, negative = inhibition"
Cc1cc(NC(=O)c2ccc3c(c2)OCO3)ccc1NC(=O)c1ccccc1,"inconclusive: 39.8 µM [fluorescent, single point]",–
N#CCC(=O)Nc1ccc(C(=O)OCC(=O)Nc2cccc(C(F)(F)F)c2)cc1,"inconclusive: 7.94 µM [quencher, side channel, partial curve]",–
NN=C1c2cc([N+](=O)[O-])ccc2-c2ccc([N+](=O)[O-])cc21,"inconclusive: 3.98 µM [quencher, side channel, full curve]",–
COCCn1c(=O)c(-c2ccccc2)nc2cnc(Nc3ccccc3)nc21,"inconclusive: 10 µM [quencher, side channel, partial curve]",–
CCOc1ccccc1N(CC(=O)NC1CCCCC1)S(=O)(=O)c1ccc(C)cc1,"inconclusive: 11.2 µM [fluorescent, side channel, partial curve]",–
Oc1cccc(/C=N/Nc2cccc3cccnc23)c1,"inconclusive: 15.8 µM [quencher, side channel, partial curve]",–
Cc1ccc(S(=O)(=O)Nc2nc3ccccc3s2)cc1[N+](=O)[O-],"inconclusive: 35.5 µM [quencher, single point]",–
O=C(/C=C/c1ccccc1)Nc1scc(-c2ccccc2)c1C(=O)O,"inconclusive: 10 µM [quencher, side channel, partial curve]",–
Cc1ccc(Cl)cc1N1CCN(C(=O)Cc2c(C(=O)O)[nH]c3ccccc23)CC1,"inconclusive: 31.6 µM [quencher, side channel, single point]",–
c1ccc2c(CSc3ncnc4nc[nH]c34)cccc2c1,"inconclusive: 7.08 µM [quencher, side channel, full curve, poor fit]",–
CC(C)CC(NC(=O)OC(C)(C)C)c1cn([C@@H](CCC(=O)OC(C)(C)C)C(=O)N2CCN(C(=O)OC(C)(C)C)CC2)nn1 (some centres not stated),"inconclusive: 1.58 µM [fluorescent, side channel, full curve]",–
CCOC(=O)/C(=N\Nc1ccc(Cl)cc1)c1csc(Nc2ccccc2)n1,"inconclusive: 3.55 µM [quencher, single point]",–
O=C(NNS(=O)(=O)c1ccc(F)cc1)c1ccccc1,–,inactive: 6.17%
O=c1cc(O)n(Cc2ccc(F)cc2)c(=O)[nH]1,"inconclusive: 25.1 µM [quencher, side channel, single point]",–
CCCOc1ccc(N2C(=O)CC(N(CCc3ccc(OC)c(OC)c3)C(=S)Nc3ccccc3)C2=O)cc1 (configuration not stated),–,inactive: -6.05%
N#CC1=C(N)Oc2c(O)cc3ccccc3c2C1c1ccsc1 (configuration not stated),"inconclusive: 28.2 µM [quencher, side channel, single point]",–
COCCNC(=O)c1ccccc1NC(=O)c1cccc([N+](=O)[O-])c1C,"inconclusive: 2.82 µM [inhibitor, full curve, poor fit]",–
CCn1c2ccccc2c2cc(C3C(C#N)=C(N)Oc4n[nH]c(COC)c43)ccc21 (configuration not stated),"inconclusive: 14.1 µM [quencher, side channel, partial curve]",–
CCOc1ccc(-n2c(C)cc(C(=O)CCl)c2C)cc1,"inconclusive: 28.2 µM [fluorescent, side channel, single point]",–

SMILES,Potency,"FP activity change, negative = inhibition"
COC(=O)N1C2CC3(C)C=C(C)OC1(C)C3c1ccccc12 (configuration not stated),–,inactive: -3.14% [at 11.7 µM]
CNC(=S)N(C1=NCC(c2ccc([N+](=O)[O-])cc2)S1)c1ccccc1 (configuration not stated),"inconclusive: 39.8 µM [quencher, side channel, single point]",–
CCOC(=O)N1CCN(c2ncnc3scc(-c4ccc(Cl)cc4)c23)CC1,"inconclusive: 11.2 µM [inhibitor, partial curve]",–
O=c1cc(-c2ccccc2)oc2cc(O)cc(O)c12,"inconclusive: 25.1 µM [quencher, side channel, single point] and inconclusive: 31.6 µM [quencher, single point]",–
COc1ccccc1NC(=O)c1cc(N2C(=O)C3C4CCC(C4)C3C2=O)ccc1Cl (configuration not stated),–,inactive: 19.8%
CCn1c(=O)c(C(=O)NNS(=O)(=O)c2ccc(Br)cc2)c(O)c2ccccc21,"inconclusive: 15.8 µM [quencher, side channel, partial curve]",–
Cc1cc2oc(=O)cc(-c3ccccc3)c2c(C)c1-c1ccoc1,–,inactive: 5.61% [at 94.6 µM]
CCN(CC)C(=O)c1cc2c(=O)n3cccc(C)c3nc2s1,"inconclusive: 35.5 µM [inhibitor, single point]",–
O=C(O)C(Cc1ccccc1)N1C(=O)/C(=C/c2cccc3ccccc23)SC1=S (configuration not stated),"inconclusive: 28.2 µM [quencher, single point]",–
Cc1ccc(-n2c(O)c(/C=N/n3cnnc3)c3ccccc3c2=O)cc1,"inconclusive: 25.1 µM [quencher, side channel, single point]",–
COc1ccc(N=C2S/C(=C\c3ccc(OC(C)C(=O)O)c(OC)c3)C(=O)N2CCc2c[nH]c3ccccc23)cc1 (configuration not stated),"inconclusive: 7.08 µM [quencher, side channel, partial curve]",–
CC(=O)c1sc(N/N=C\c2cccc(Br)c2)nc1C,"inconclusive: 31.6 µM [quencher, side channel, single point]",–
COC(=O)CC(NC(=O)Nc1ccc(C)cc1)c1cccc([N+](=O)[O-])c1 (configuration not stated),"inconclusive: 8.91 µM [quencher, side channel, partial curve]",–
CN(C)c1ccc(/C=C/c2ccc3c4ccccc4ccc3[n+]2-c2ccccc2)cc1,"inconclusive: 0.708 µM [fluorescent, side channel, full curve]",–
O=C(Cc1c(F)c(F)c(F)c(F)c1F)Nc1nc(-c2ccccc2)cs1,"inconclusive: 14.1 µM [quencher, side channel, partial curve]",–
COc1cc(/C=N/NC(=O)c2ccc(O)cc2)ccc1Oc1ccc([N+](=O)[O-])cn1,"inconclusive: 15.8 µM [quencher, side channel, single point]",–
CN1CCc2c(sc(/N=C/c3cccs3)c2C(N)=O)C1,–,inactive: -26.2%
CC(C)(C)OC(=O)N[C@@H](Cc1ccccc1)C(=O)N[C@@H](CO)[C@H](O)[C@@H]1C[C@@H]1C(=O)NC1CC1,–,inactive: 13.8%
CN(C)S(=O)(=O)c1ccc(Cl)c(NC(=O)COC(=O)c2cc(-c3ccccc3)nc3ccccc23)c1,"inconclusive: 20 µM [inhibitor, single point]",–
